Assay in all cases: Primary Screen for Target Class Profiling of Small Molecule Inhibitors of Methyltransferases
Assay [1] concerns the target Glycine N-methyltransferase (Homo sapiens) (UniProt Q14749). Particulars: purified enzyme, MTase-Glo SAH luminescence; measured here: GNMT inhibition; at 40 µM; stronger effect = lower value. In short, it runs like this: (§1)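 Each enzyme was assayed with SAM and its substrate. SAH formation detected by MTase-Glo luminescence; single-point 40 uM screen[…].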
The target of assay [2] is Guanidinoacetate N-methyltransferase (Homo sapiens) (UniProt Q14353). The conditions noted are these: purified enzyme, MTase-Glo SAH luminescence; measured here: GAMT inhibition; at 40 µM; stronger effect = lower value. In short, it runs like this: as §1
Assay [3] deals with Histamine N-methyltransferase (Homo sapiens) (UniProt P50135). Particulars: purified enzyme, MTase-Glo SAH luminescence; measured here: HNMT inhibition; at 40 µM; stronger effect = lower value. In a few lines: as §1
In assay [4] the target is Nicotinamide N-methyltransferase (Homo sapiens) (UniProt P40261). Particulars: purified enzyme, MTase-Glo SAH luminescence; measured here: NNMT inhibition; at 40 µM; stronger effect = lower value. In short, it runs like this: as §1
Assay [5] addresses Phenylethanolamine N-methyltransferase (Homo sapiens) (UniProt P11086). The conditions noted are these: purified enzyme, MTase-Glo SAH luminescence; measured here: PNMT inhibition; at 40 µM; stronger effect = lower value. In a few lines: as §1

Some of the results follow. Shown are side measurements of this screen, not its main read-out; they come without a call. Square brackets hold non-standard residues; d marks the D form. Peptide text beside a SMILES is read from it. dPhe(4-Cl) = N[C@H](Cc1ccc(Cl)cc1)C(=O)O; d2Nal = N[C@H](Cc1ccc2ccccc2c1)C(=O)O; dCit = NC(=O)NCCC[C@@H](N)C(=O)O; d3Pal = N[C@H](Cc1cccnc1)C(=O)O
On the % scale 0 is the no-effect control and ±100 the full control effect.

Take `COc1ccc(C2OCC3C(c4cc(OC)c5c(c4)OCO5)OCC23)cc1OC` (stereo not given): the activity change, negative = inhibition in assay [1] is 0.289%; in assay [2] it was 6.53%; in assay [3] it was 11.4%; in assay [4], -7.12%; in assay [5], 2.15%.

On to `CCS(=O)(=O)N1CCC([C@@H](C)n2c(C)c(C(=O)NCc3c(OC)cc(C)[nH]c3=O)c3ccccc32)CC1`, for which the activity change, negative = inhibition in assay [1] was 5.94%; in assay [2], 5.3%; in assay [3] it was 9.94%; in assay [4], -14.3%; in assay [5], 1.64%.

Consider `Fc1ccc(CNc2ncnc3ccc(F)cc23)cc1`, for which the activity change, negative = inhibition in assay [1] is -0.015%; in assay [2], 7.11%; in assay [3], 7.38%; in assay [4] it was -15.1%; in assay [5], -2.22%.

Turning to `COc1ccc(NC(=O)CC2CCCCN(C)C2=O)cc1OC` (stereo not given), the activity change, negative = inhibition in assay [1] was -2.73%; in assay [2], -8.38%; in assay [3], -3.43%; in assay [4] it was -14.6%; in assay [5], 6.41%.

`CC(CCc1ccccc1)NC(=O)CCn1ccc2cc(S(=O)(=O)N3CCCC3)ccc21` (stereo not given): the activity change, negative = inhibition in assay [1] is -1.95%; in assay [2] it was 0%; in assay [3] it was 5.39%; in assay [4], 5.66%; in assay [5] it was 3.64%.

Regarding `CC1CCN(C(=O)CN2C(=O)NC3(CCCCC3)C2=O)CC1`, the activity change, negative = inhibition is 2.01% in assay [1]; -4.65% in assay [2]; 1.7% in assay [3]; 2.82% in assay [4]; 1.53% in assay [5].

With `CCC(C)NC(=O)c1ccc2c(=O)n(C)c3nn(CC(=O)Nc4ccc(C)cc4)c(=O)n3c2c1` (stereo not given), the activity change, negative = inhibition was 3.35% in assay [1]; 2.98% in assay [2]; 3.22% in assay [3]; -1.02% in assay [4]; -0.759% in assay [5].

In the case of `Cc1cc(C)n(CCC(=O)N2CCC(C3CCN(S(C)(=O)=O)CC3)C2)n1` (stereo not given), the activity change, negative = inhibition in assay [1] is -4.7%; in assay [2], -7.09%; in assay [3] it was -2.37%; in assay [4], -8.59%; in assay [5] it was -6.55%.

With `COc1ccc(Cn2c(=O)c3ccccc3n3c(-c4ccc(OC)cc4O)nnc23)cc1`, the activity change, negative = inhibition was -16.4% in assay [1]; 0% in assay [2]; 8.87% in assay [3]; -2.63% in assay [4]; 1.35% in assay [5].

For the compound `O=C(c1ccc(Nc2nc3ccccc3n3nnnc23)cc1)N1CCN(c2ccc(F)cc2)CC1`, the activity change, negative = inhibition in assay [1] was -21.7%; in assay [2], 0%; in assay [3], -3.01%; in assay [4] it was -4.59%; in assay [5] it was -5.31%.

`Cc1cccc(NC(=O)Cn2nc3n(CC(C)C)c(=O)c4ccc(C(=O)NC(C)C)cc4n3c2=O)c1`: the activity change, negative = inhibition in assay [1] was -0.609%; in assay [2], 3.18%; in assay [3], 2.11%; in assay [4] it was -5.81%; in assay [5], -2.65%.

On to `Cn1c(=O)c2c(ncn2C)n(C)c1=O`, for which the activity change, negative = inhibition was -4.73% in assay [1]; 6.15% in assay [2]; -0.77% in assay [3]; -1.73% in assay [4]; 9.41% in assay [5].

For `CC(=O)N[C@H](Cc1ccc2ccccc2c1)C(=O)N[C@H](Cc1ccc(Cl)cc1)C(=O)N[C@H](Cc1cccnc1)C(=O)N[C@@H](CO)C(=O)N[C@@H](Cc1ccc(O)cc1)C(=O)N[C@H](CCCNC(N)=O)C(=O)N[C@@H](CC(C)C)C(=O)N[C@@H](CCCN=C(N)N)C(=O)N1CCC[C@H]1C(=O)N[C@H](C)C(N)=O` (Ac-[d2Nal][dPhe(4-Cl)][d3Pal]SY[dCit]LRP[dA]-NH2), the activity change, negative = inhibition in assay [1] was found to be 3.31%; in assay [2], 21.4%; in assay [3], 6.88%; in assay [4], 3.09%; in assay [5], 5.4%.

In the case of `COc1cccc(C2c3cccn3-c3sc4c(c3CN2C(=O)Nc2ccccc2OC)CCCC4)c1` (stereo not given), the activity change, negative = inhibition is 0.552% in assay [1]; 0% in assay [2]; 7.53% in assay [3]; -3.79% in assay [4]; 4.21% in assay [5].

As for `C/C(=C/CO)CC[C@@H]1[C@@](C)(O)CCC2C(C)(C)CCC[C@]21C` (stereo not given in full), the activity change, negative = inhibition in assay [1] is -3.17%; in assay [2] it was 10.4%; in assay [3], 9.12%; in assay [4] it was -6.74%; in assay [5], 3.32%.

Values taken from PubChem BioAssay AID1745853 (National Center for Advancing Translational Sciences (NCATS), 2022).
